Data published in the supplement of paper PMC10126150.
Values marked as one replicate rest on one cluster of the flow cell; about a third of the high ones do not repeat.

System: ATP
Experiment: switch fluorescence ratio, 500 uM ATP over buffer (Cy3 cluster intensity, sum of 5 cycles each) (fold (ratio)); higher = stronger signal-on switching upon ATP binding; sequences stand for … in TCGTCGGCAGCGTCAGATGTGTATAAGAGACAGTTTTTTTTTTTTTTTTTTTTTTTTT…TC
Settings: aptamer strand: ATP DNA aptamer (quencher-CACCTGGGGGAGTATTGCGGAGGAAGG + anchor), 100 nM annealed; ATP concentration: 500 uM; one replicate
Procedure, shortened: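 The quencher-labelled ATP aptamer, at 100 nM, was annealed to Cy3-labelled switching-strand clusters on a modified Illumina MiSeq flow-cell. The clusters were imaged in selection buffer, then after 15 min with 500 uM ATP at 22 °C, and this buffer/ATP cycle ran five times with NaOH stripping and re-annealing between runs. Per-cluster fluorescence ratios, summed target-cycle over summed buffer-cycle Cy3 intensity, were averaged per switch-domain sequence. Clusters outside 100-1000 RFU were excluded.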
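Also: ATP exposure 15 min at 22 °C before imaging.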

Sequence | switch fluorescence ratio
CTGGGCTGTT | 1.01
ACATTAATGT | 1.03
CCCTTTTCTG | 1.01
CGTAAGATGC | 1.06
GCTCGGAATC | 2.13
GGAGAGTCGT | 0.99
GTGGGTCCTT | 1.02
GGTGCTAGTC | 1.01
CTAAAGGGAA | 1.01
CGGAGTAGTT | 1.08
CAGAACGACG | 1.02
AAGGCAAGTA | 1.03
CAGGAGTGCA | 1.01
ATAACGTCGC | 0.913
CGCATTTAAT | 1.07
ATCAGCCCT | 1.04
TCAAATATTA | 1.01
GGTTTACGGG | 0.97
CGGCGCGGCC | 1.03
CACTTGGCGC | 0.945
TTCCAATATG | 1.53
TTCAAAAAGC | 1.01
AGGGCGGATG | 1.01

Sequence | switch fluorescence ratio
AGTCCTAAGC | 1.05
GGAATCGCGT | 1.05
GGTACGCGGA | 1.11
CAGCATGCTT | 1.01
CAGGCTTGGC | 0.963
TTTAAATCGC | 1.01
CGTCTGAGTT | 1
ATTATTAGTG | 1.01
CGCGTGTGCT | 1.03
TATTATAATT | 0.954
CGGCACTTTT | 1.01
AGGGTCGTAC | 1.03
CATGCGCATC | 2.52
ACGGGGGGA | 1.12
TAATATTAT | 0.991
GAGTAGACGC | 1
TTATAAGAAT | 0.978
AATCCCGATC | 1.1
TTCCAGGTAC | 1.28
CGTACGACGG | 1.02
GGGATAGAGT | 0.961
AGCAAGTAAT | 1.07
CAATTCCGCT | 1.38

Sequence | switch fluorescence ratio
TTAAAGTATG | 1.16
GGCTAAATTT | 1.02
TCATCCAATA | 1.04
GGACCCGTAG | 0.987
GGGAAGATGA | 1.01
ACAGTAAGCT | 1.01
AGACTATGGT | 1.01
ATTTTAGCGA | 1.01
TTAGTAAAAA | 1.09
CTTAGCAATT | 2.33
AATACCTCAC | 1.64
TGAGAAACAG | 1.05
TAGCTATTTT | 1.16
TATCAACAGC | 0.994
GTCGCGCATT | 1.01
CTGCGCAGGT | 0.994
TAGAGAACGG | 0.995
AGCCCGTGAA | 1.02
CGGCAAGTTG | 0.963
AGAACCGAAG | 1.06
TTAAAGATAG | 1.05
ATGGGGATTC | 1
TAGTTAATGA | 0.984

Sequence | switch fluorescence ratio
TCTTACTCT | 0.981
TTAGAGTCCA | 1.01
TTCGCGTATT | 1.02
CGTGGGTAGT | 1.06
TGCTAGCTGA | 1
GTGTTGTCAG | 0.993
CGCTCTATAG | 1.12
TAGTTTACGT | 1.03
TCGTGCACCT | 1.03
ACCAAGTGAA | 1
CGGGGCTACG | 1.01
TACGGGGTAC | 1.33
TGGGATCGGC | 0.993
TACGCCTCGC | 1.1
CGAAAACAGG | 1.08
GAGATGCATT | 0.951
CGTACTGGAC | 1.17
CCAAAATAAG | 0.98
CTGTCAGAAC | 0.978
TAGTGAGTGT | 0.973
ATTGTCTTAA | 0.934
GGTTTGTCGA | 0.989
GAAACGTCGT | 0.978

Sequence | switch fluorescence ratio
CAGGAAGCCC | 1.03
AACCTACTAG | 1.14
TCAGATAACG | 1.01
TGAAATTCGG | 0.968
TCGGTATACA | 1.02
TATCAAGATA | 1.01
TGGCAAAGGG | 0.955
AAGCGAATGA | 1.05
TTATCGCAAC | 1.02
TGACGGGTAA | 1.04
AAACCCTTGA | 1.05
CGGTTTTGA | 1.02
AAGGTGTAAA | 0.927
TTTATCCGGA | 1.01
AGGTGCTTAT | 1.04
GTTCATCGGC | 1.03
CAATCGCATT | 1.86
CAACGATCTT | 0.996
CCGCGTACTA | 5.78
AAACTTGAGC | 0.99
GTCGTACAGG | 0.961
ACCCACCGAC | 1.46
CCTAAGATAC | 2.26

Sequence | switch fluorescence ratio
GCCGGTAAA | 1
TCTATCGGC | 0.998
CAGGGTGTAC | 1.06
GGTATTGAAA | 0.987
TCATACATGG | 0.9
CATCGAGTCC | 0.981
CTTCAGTAAA | 0.96
TATTATAGT | 0.997
GCATGCTCTT | 1.05
GCCGATGTAG | 0.986
ATCTCCCAAA | 1.2
GCAATAGTGT | 1.42
CTGAGACGAA | 0.954
AGTGTCAGC | 1.07
GAGACTGAGC | 0.955
CGTCGTACGG | 1.01
TGCGGAAA | 1.03
AAGAGTTATA | 0.999
AATGGTATGA | 0.995
GATGTTCCTT | 1
CACGATACTA | 1.44
CTGACGGGG | 1.06
TTCTGTTTTC | 1.03

Sequence | switch fluorescence ratio
AATCTATATC | 1.04
GCCACTCAGT | 1.05
ACCGTCTTAT | 1.16
GCGCTTTTGA | 1.01
ACGAGGAGGT | 0.948
ATGAGTATCT | 1.02
GCATATAGTG | 1.01
CGTTCCGTTG | 1.05
CGGCATAAGG | 0.999
TCTTAGCCGG | 0.969
TTTCATGAAA | 0.975
GTGTGCAGGA | 1.05
TTTTGCGGC | 1.02
TCTGTGAGGC | 1.09
TTTGTCAGGA | 0.978
CGGATTTGCT | 0.957
CTGGGGAAGG | 0.994
TTCGTCT | 1
ACCTGGCATA | 1.13
